# Source: a collection of fitness landscapes (doi:10.1016/j.celrep.2020.107928)
# Whole data set: some 81,000 sequences, median “one-hybrid fitness for binding parS DNA” near -0.17, cut for the highest 2% near 0.51. The list shows a part of the results.
# B1: Caulobacter ParB omega fusion; a variant is named by its letters at X, in order, B8GW30 (parent)
# chain: MESVVVGEPGMSEGRRGLGRGLSALLGEVDAAPAQAPGEQLGGSREAPIEILQRNPDQPRRTFREEDLEDLSNSIREKGVLQPILVRPSPDTAGEYQIVAGERAWRAAQRAGLKTVPIMVRELDDLAVLEIGIIENVQRADLNVLEEALSYKVLMEKFERTQENIAQTIGKSXSHVANXMRLLXLPDEVQSYLVSGELTAXHARAIAAAADPVALAKQIIEGGLSVRETEALARKAPNLSAGKSKGGRPPRVKDTDTQALESDLSSVLGLDVSIDHRGSTGTLTITYATLEQLDDLCNRLTRGI
# Variants of: B1
# Assay: one-hybrid fitness for binding parS DNA (scaled: cognate 1, non-cognate 0); higher = stronger binding
# Details: with parS DNA site
# How it was run: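 Fitness is the rescaled log change in variant-to-wild-type read ratio, measured by Illumina sequencing of plasmids before and after bacterial one-hybrid selection. The scale puts cognate at 1 and non-cognate at 0. Selection of Caulobacter ParB libraries, four specificity codons randomised, took place in E. coli USO with a HIS3 reporter, site 19 bp from the promoter, over 48 hours at 37°C on M9-minus-histidine with 0.1 mM IPTG and 5 mM 3-AT.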
row,Variant,one-hybrid fitness for binding parS DNA
1,EPSD,≤ 0.2
2,IVLV,≤ 0.2
3,GHWC,≤ 0.2
4,QCFY,≤ 0.2
5,SFKC,≤ 0.2
6,CKSI,≤ 0.2
7,NHYC,≤ 0.2
8,GNPT,≤ 0.2
9,MTWS,≤ 0.2
10,AQQR,≤ 0.2
11,LEAG,≤ 0.2
12,RQHA,0.57
13,SRQL,≤ 0.2
14,DQSY,≤ 0.2
15,PAPY,≤ 0.2
16,MMSN,≤ 0.2
17,NVPT,≤ 0.2
18,SAAI,≤ 0.2
19,EAHV,≤ 0.2
20,HPAF,≤ 0.2
21,CMKS,≤ 0.2
22,IVSA,≤ 0.2
23,TPQV,≤ 0.2
24,KANR,≤ 0.2

row,Variant,one-hybrid fitness for binding parS DNA
1,AAWN,≤ 0.2
2,NNPT,≤ 0.2
3,SNTI,≤ 0.2
4,WKIY,≤ 0.2
5,WTAG,≤ 0.2
6,AVDH,≤ 0.2
7,QACV,≤ 0.2
8,TYFH,≤ 0.2
9,EPPW,≤ 0.2
10,AIEG,≤ 0.2
11,GSWC,≤ 0.2
12,AAAH,≤ 0.2
13,VPFG,≤ 0.2
14,RKPL,≤ 0.2
15,AKVG,≤ 0.2
16,FRRM,≤ 0.2
17,CAAR,≤ 0.2
18,SVPS,≤ 0.2
19,RRHN,0.689
20,YRHK,≤ 0.2
21,AFLN,≤ 0.2
22,RRYE,≤ 0.2
23,PPRG,≤ 0.2
24,NNFL,≤ 0.2

row,Variant,one-hybrid fitness for binding parS DNA
1,RWEA,0.301
2,CRNT,≤ 0.2
3,WGLS,≤ 0.2
4,NNLW,≤ 0.2
5,QPQG,≤ 0.2
6,QYMG,≤ 0.2
7,TGRK,≤ 0.2
8,RYLP,≤ 0.2
9,FEVR,≤ 0.2
10,GMYR,≤ 0.2
11,HWES,≤ 0.2
12,RFSM,0.326
13,QKQY,≤ 0.2
14,YNYT,≤ 0.2
15,NSER,≤ 0.2
16,TPII,≤ 0.2
17,WMAG,≤ 0.2
18,HKGV,≤ 0.2
19,RSKW,0.286
20,KHKV,≤ 0.2
21,TGKN,≤ 0.2
22,CGNR,≤ 0.2
23,RYNI,≤ 0.2
24,QSLD,≤ 0.2

row,Variant,one-hybrid fitness for binding parS DNA
1,TCWS,≤ 0.2
2,TMES,≤ 0.2
3,ALQL,≤ 0.2
4,RDQT,≤ 0.2
5,PNSP,≤ 0.2
6,EQAR,≤ 0.2
7,KESR,≤ 0.2
8,KSHC,≤ 0.2
9,KRSG,≤ 0.2
10,FWLF,≤ 0.2
11,RNYQ,≤ 0.2
12,AAFN,≤ 0.2
13,RRIA,0.828
14,IHYC,≤ 0.2
15,AWVS,≤ 0.2
16,YALT,≤ 0.2
17,PSWG,≤ 0.2
18,MLKG,≤ 0.2
19,EKQG,≤ 0.2
20,NLSL,≤ 0.2
21,GPKF,≤ 0.2
22,CTKV,≤ 0.2
23,LMDN,≤ 0.2
24,TAMK,≤ 0.2

row,Variant,one-hybrid fitness for binding parS DNA
1,REMF,≤ 0.2
2,KRVF,≤ 0.2
3,AKIQ,≤ 0.2
4,FFLV,≤ 0.2
5,IQWS,≤ 0.2
6,DDYT,≤ 0.2
7,APPY,≤ 0.2
8,PHRY,≤ 0.2
9,TIRC,≤ 0.2
10,GSEV,≤ 0.2
11,DSKT,≤ 0.2
12,IERG,≤ 0.2
13,DHPE,≤ 0.2
14,TPRT,≤ 0.2
15,IEPP,≤ 0.2
16,EYKR,≤ 0.2
17,VQKC,≤ 0.2
18,DKDC,≤ 0.2
19,QRIM,≤ 0.2
20,ISRC,≤ 0.2
21,GMVD,≤ 0.2
22,PVHN,≤ 0.2
23,RWGS,0.68
24,KQPW,≤ 0.2

row,Variant,one-hybrid fitness for binding parS DNA
1,SSQG,≤ 0.2
2,YPNM,≤ 0.2
3,SFQL,≤ 0.2
4,VMNW,≤ 0.2
5,CREV,≤ 0.2
6,PFFG,≤ 0.2
7,FMPS,≤ 0.2
8,QYYR,≤ 0.2
9,HYGG,≤ 0.2
10,WLHL,≤ 0.2
11,ASLH,≤ 0.2
12,YCKG,≤ 0.2
13,WQLR,≤ 0.2
14,PHIR,≤ 0.2
15,ARDV,≤ 0.2
16,FGKG,≤ 0.2
17,KYRT,≤ 0.2
18,MQHS,≤ 0.2
19,AYIR,≤ 0.2
20,QVCY,≤ 0.2
21,RLLT,0.961
22,NELD,≤ 0.2
23,GVKS,≤ 0.2
24,KPQR,≤ 0.2

row,Variant,one-hybrid fitness for binding parS DNA
1,EQIW,≤ 0.2
2,DLGR,≤ 0.2
3,ISFC,≤ 0.2
4,FMTS,≤ 0.2
5,DPKL,≤ 0.2
6,LVLT,≤ 0.2
7,KLMW,≤ 0.2
8,VLMD,≤ 0.2
9,MHHT,≤ 0.2
10,LYTI,≤ 0.2
11,ICQT,≤ 0.2
12,VWKA,≤ 0.2
13,EQHC,≤ 0.2
14,ACGK,≤ 0.2
15,TNVM,≤ 0.2
16,THIS,≤ 0.2
17,DEKR,≤ 0.2
18,QWLS,≤ 0.2
19,NETR,≤ 0.2
20,LELC,≤ 0.2
21,QNPY,≤ 0.2
22,RISV,≤ 0.2
23,RAGG,0.99
24,RADM,0.284

row,Variant,one-hybrid fitness for binding parS DNA
1,ILDV,≤ 0.2
2,YAAR,≤ 0.2
3,PATL,≤ 0.2
4,YWII,≤ 0.2
5,GKDL,≤ 0.2
6,TKTW,≤ 0.2
7,PKDK,≤ 0.2
8,IIHE,≤ 0.2
9,TILG,≤ 0.2
10,KQLT,≤ 0.2
11,DIPL,≤ 0.2
12,TCPM,≤ 0.2
13,LRAA,≤ 0.2
14,IDWT,≤ 0.2
15,RPCW,≤ 0.2
16,RCAH,≤ 0.2
17,RNMY,0.325
18,AQLM,≤ 0.2
19,WFLS,≤ 0.2
20,HHLG,≤ 0.2
21,PIFS,≤ 0.2
22,STPG,≤ 0.2
23,LHHA,≤ 0.2
24,AANY,≤ 0.2

row,Variant,one-hybrid fitness for binding parS DNA
1,EDGR,≤ 0.2
2,PPLT,≤ 0.2
3,SEDG,≤ 0.2
4,LHGS,≤ 0.2
5,SENN,≤ 0.2
6,VKPI,≤ 0.2
7,QAPW,≤ 0.2
8,DYVY,≤ 0.2
9,SLRL,≤ 0.2
10,LCWF,≤ 0.2
11,PPQS,≤ 0.2
12,PFFV,≤ 0.2
13,AART,≤ 0.2
14,FLTG,≤ 0.2
15,IRNN,≤ 0.2
16,APSD,≤ 0.2
17,QTVI,≤ 0.2
18,PTFM,≤ 0.2
19,VDSL,≤ 0.2
20,MTQR,≤ 0.2
21,CGNW,≤ 0.2
22,FVTS,≤ 0.2
23,HGPS,≤ 0.2
24,ELLC,≤ 0.2

row,Variant,one-hybrid fitness for binding parS DNA
1,VVPE,≤ 0.2
2,PVYD,≤ 0.2
3,LLRA,≤ 0.2
4,ELRQ,≤ 0.2
5,GECF,≤ 0.2
6,CERA,≤ 0.2
7,QMHN,≤ 0.2
8,QSPG,≤ 0.2
9,SHSS,≤ 0.2
10,NCGC,≤ 0.2
11,RRRM,0.762
12,QSLT,≤ 0.2
13,NWCR,≤ 0.2
14,HTQC,≤ 0.2
15,GYCG,≤ 0.2
16,SKKI,≤ 0.2
17,QKNK,≤ 0.2
18,MHSL,≤ 0.2
19,LSFM,≤ 0.2
20,DTAQ,≤ 0.2
21,PNNS,≤ 0.2
22,TRIS,≤ 0.2
23,RTRE,≤ 0.2
24,LWTG,≤ 0.2

row,Variant,one-hybrid fitness for binding parS DNA
1,KLPS,≤ 0.2
2,THFY,≤ 0.2
3,STSV,≤ 0.2
4,PRLY,≤ 0.2
5,VDCC,≤ 0.2
6,ALQV,≤ 0.2
7,VANC,≤ 0.2
8,WKHT,≤ 0.2
9,DQTT,≤ 0.2
10,NKNG,≤ 0.2
11,GINY,≤ 0.2
12,NCPE,≤ 0.2
13,FMSR,≤ 0.2
14,PIVK,≤ 0.2
15,AKSV,≤ 0.2
16,MSHS,≤ 0.2
17,APGM,≤ 0.2
18,CHKD,≤ 0.2
19,PEWT,≤ 0.2
20,RHDM,0.254
21,RQWK,≤ 0.2
22,WAYI,≤ 0.2
23,HYDG,≤ 0.2
24,VRHG,≤ 0.2

row,Variant,one-hybrid fitness for binding parS DNA
1,SPPD,≤ 0.2
2,KRHK,≤ 0.2
3,GRWE,≤ 0.2
4,WISC,≤ 0.2
5,RQRM,0.349
6,RITE,≤ 0.2
7,WEPW,≤ 0.2
8,NSML,≤ 0.2
9,RPCL,≤ 0.2
10,FRDK,≤ 0.2
11,RFIP,≤ 0.2
12,MEGG,≤ 0.2
13,RQTY,0.45
14,TYPI,≤ 0.2
15,LFMW,≤ 0.2
16,LPYL,≤ 0.2
17,QCQY,≤ 0.2
18,GAHA,≤ 0.2
19,LRLP,≤ 0.2
20,KDGW,≤ 0.2
21,SYSI,≤ 0.2
22,SKCS,≤ 0.2
23,VNPF,≤ 0.2
24,ISTK,≤ 0.2

row,Variant,one-hybrid fitness for binding parS DNA
1,LCPT,≤ 0.2
2,VTPP,≤ 0.2
3,HEKV,≤ 0.2
4,SDIT,≤ 0.2
5,MCFR,≤ 0.2
6,INYT,≤ 0.2
7,QHTQ,≤ 0.2
8,DPYH,≤ 0.2
9,QSPI,≤ 0.2
10,DIVS,≤ 0.2
11,RREH,≤ 0.2
12,NDYP,≤ 0.2
13,WWPD,≤ 0.2
14,MVQT,≤ 0.2
15,NYTI,≤ 0.2
16,YNRT,≤ 0.2
17,RERA,≤ 0.2
18,LLCE,≤ 0.2
